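Dose response: 5 concentrations. Exposure: 48 h. Format: 96-well plates. Endpoint: linear interpolation; highest concentration if not reached. GI50 is the concentration that inhibits growth by half. TGI denotes the concentration required for complete inhibition of growth.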
Tested on: NCI-H322M lung
Assay: inhibition of tumour cell growth, NCI panel, 48 h

Structure (SMILES) | TGI [µM] | GI50 [µM]
Cc1ccc(/C(O)=C/c2nc3ccccc3oc2=O)cc1 | > 100 | 
COc1ccc2c(=O)c(C)c(-c3ccccc3)oc2c1CN(C)C | > 100 | 
COc1cc(N(CCC#N)CCC#N)ccc1/C=C1\SC(=S)NC1=O | > 100 | 
COc1cc(C(=O)c2ccc3c(c2)OCO3)cc(OC)c1OC | > 100 | 4.44
O=C(CN1CCN(c2ncnc3ccccc23)CC1)Nc1ccc(Cl)cc1C(=O)c1ccccc1Cl | 8.49 | 0.528
Cn1c2ccccc2c2c(-c3ccccc3)[n+]3ccccc3nc21 | > 100 | 
C=CCc1cc(-c2cc(CC=C)c(O)c(CN(CCCl)CCCl)c2)cc(CN(CCCl)CCCl)c1O | 47.6 | 
COc1cc(C2=NN(C)C(c3ccc([N+](=O)[O-])o3)C2)cc(OC)c1OC (centres undefined) | > 100 | 
COc1ccc2nc(-c3cc(-c4cc(OC)c(OC)c(OC)c4)n[nH]3)[nH]c2c1 | 9.05 | 2.47
CN(C)c1ccc(-c2cc(=O)c3cc4c(cc3[nH]2)OCO4)cc1 | > 100 | 
O=C1C=CC2(O[C@H](c3ccccc3)[C@@H](c3ccccc3)O2)C(SC(=O)c2ccccc2)C1 (some centres undefined) | 26.8 | 
COc1cc(/C=C2/C(=O)N(C(=O)OC(C)C)C(Cc3cc(OC)c(OC)c(C)c3OC)C(=O)N2Cc2ccccc2)c(OC)c(C)c1OC (centres undefined) | > 100 | 
CC1=C[C@H]2c3c(c(O)c(O)c4oc5c(C)cccc5c(=O)c34)[C@H](c3cc(O)c(O)c4oc5c(C)cccc5c(=O)c34)[C@H]2C(C)(C)C1 | 11.6 | 2.04
O=C1CCCCC1CN1CCCC1 (centres undefined) | > 100 | 
C=C(C)C1CC=C(C)[C@](O)(C2(O)C[C@H](C(=C)C)CC=C2C)C1 (some centres undefined) | > 100 | 
COc1ccccc1OCC(=O)Nc1sc2c(c1C(N)=O)CCC2 | > 100 | > 100
Cc1[nH]c2ccccc2c1C1Cc2ccccc2N1C(=O)/C=C/C=C/c1ccccc1 (centres undefined) | > 100 | 
COc1ccc(CN2C[C@H]3[C@@H](CC(=O)O[C@H]3C)CC2=O)cc1 | > 100 | 
COC(=O)[C@@H]1CN(C(=O)c2ccccc2)C(=O)N1 | > 100 | 
COc1cc(-c2nc(Nc3nc4ccccc4[nH]3)nc(N)c2C#N)cc(OC)c1OC | > 100 | 32.8
Cc1cc2c(cc1Cl)SC1=CC(=O)N(c3ccccc3)C1=NS2(=O)=O | > 100 | > 100
N#Cc1c(-c2ccc(Cl)cc2)cc(-c2ccc(Nc3ccnc4cc(C(F)(F)F)ccc34)cc2)[nH]c1=O | > 100 | 
